Measurements as given in PubChem BioAssay AID686979 (National Center for Advancing Translational Sciences (NCATS), 2013).
Out of some 420,000 compounds screened, about 50,000 (12%) were called active. The inconclusive results got no clear call from the source; some entries with a clear call stand among them for comparison. Calls come from the whole dose curve; as a rule, active = well fitted inhibition curve with a large enough effect; inconclusive = small, poorly fitted or top-dose-only effect; inactive = flat fitted curve, though single readings scatter. No potency is given beside an inconclusive call; the fits are too rough.

Test: qHTS for Inhibitors of human tyrosyl-DNA phosphodiesterase 1 (TDP1): qHTS in cells in presence of CPT; note: nearly all actives have a fitted effect of over 55% in size
Conditions: chicken DT40 Tdp1-/-;hTDP1 cells + 20 nM CPT, ATP luminescence, 48 h; activity change, negative = growth inhibition: at 46.2 µM (top of the series)
Outline: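 Chicken DT40 Tdp1-/- cells stably complemented with human TDP1 were seeded at 400 cells/well in medium containing 20 nM camptothecin, exposed to pin-transferred compounds, and grown at 37 °C for at least 48 hr. Viability was read as ATP luminescence.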
% is set by controls: 0 for no effect and ±100 for the full control effect; potency is the fitted concentration of half-maximal effect; tags give direction and shape of the fitted curve.

Structure (SMILES)	Potency	activity change, negative = growth inhibition
CC(=O)c1ccc(OC2(C)CCN(Cc3csc4ccccc34)C2)cc1 (stereo not given)	inconclusive [inhibitor, single point]	–
N#CCCN1CCN(S(=O)(=O)c2ccc(S(=O)(=O)NC3CCCCC3)cc2)CC1	inconclusive [inhibitor, single point]	–
O=C(c1cccs1)N1CCC(N2CCN(c3ccccc3)CC2)CC1	inconclusive [inhibitor, single point]	–
O=C(Nc1nnc(/N=C/c2ccco2)s1)c1ccc(F)cc1	–	inconclusive: -35.9% [inhibitor]
Cc1ccc(S(=O)(=O)N2CCCCC2)cc1NC(=O)C1COc2ccccc2O1 (stereo not given)	inconclusive [inhibitor, single point]	–
CSc1ccc(CCNC(=O)c2cc(C)nc3c2c(C)nn3-c2cccc(F)c2)cc1	inconclusive [inhibitor, single point]	–
COc1cccc(C(=O)N2CCN(S(=O)(=O)Cc3ccccc3)CC2)c1	–	inactive: -26.1%
CCN(CC(=O)NCc1cccs1)C(=O)c1ccc(-c2ccc(F)cc2)o1	inconclusive [inhibitor, single point]	–
CC(C)(C)C(=O)CSc1nc2ccsc2c(=O)n1Cc1ccccc1Cl	active: 20.6 µM	–
Cc1c(C(=O)NCC2COc3ccccc3O2)oc2ccc(S(=O)(=O)N3CCOCC3)cc12 (stereo not given)	inconclusive [inhibitor, single point]	–
Cc1ccccc1CNC(=O)C(=O)NCC1CCCN1S(=O)(=O)c1cccs1 (stereo not given)	inconclusive [inhibitor, partial curve]	–
Cc1cc(NC(=O)c2cc(-c3ccc(C)s3)nc3ccccc23)no1	inconclusive [inhibitor, partial curve]	–
CN(CC(=O)N1CCN(c2ccc(F)cc2)CC1)S(=O)(=O)c1ccc2c(c1)c(=O)n(C)c(=O)n2C	inconclusive [inhibitor, single point]	–
Cc1cc(NS(=O)(=O)c2ccc(Nc3nc(-c4ccc(C)c(C)c4)cs3)cc2)no1	inconclusive [inhibitor, single point]	–
CC1CC(C)CN(CC(C)(C)NS(=O)(=O)c2ccc(Cl)cc2)C1 (stereo not given)	inconclusive [inhibitor, single point]	–
CC(C)(C)N(Cc1ccccc1)C(=O)c1ccc(Br)o1	inconclusive [inhibitor, single point]	–
CCOc1ccccc1NC(=O)CSc1nc2c(oc3ccccc32)c(=O)n1-c1ccc(F)cc1	active: 8.2 µM	–
Cc1ccc(Cn2nc(C)c(NC(=O)c3noc4c3CCCCC4)c2C)cc1	–	inactive: -29.7%
COc1cccc(CNS(=O)(=O)c2cc3c4c(c2)CCN4C(=O)CC3)c1	–	inactive: -9.91%
O=C(OCc1cc(=O)n2nc(-c3cccs3)sc2n1)c1ccccc1Cl	–	inactive: -6.07%
Cn1c(=O)oc2cc(S(=O)(=O)N3CCC(C(=O)NCCc4ccccc4)CC3)ccc21	inconclusive [inhibitor, single point]	–
Cc1ccccc1NC(=O)C1CC(=O)N(c2ccc3c4c(cccc24)CC3)C1 (stereo not given)	inconclusive [inhibitor, single point]	–
O=C(NNC(=S)NC(=O)c1ccccc1)c1ccc([N+](=O)[O-])cc1	active: 13 µM	–

Structure (SMILES)	Potency	activity change, negative = growth inhibition
CSc1ccc(CN2C(=O)C(F)(F)Oc3c(C(C)=O)cccc32)cc1	active: 18.4 µM	–
Cc1ccc(S(=O)(=O)Nc2ccc3c(c2)OCCO3)c(C)c1NS(C)(=O)=O	inconclusive [inhibitor, single point]	–
CCOC(=O)c1c(NC(=O)C(=O)N/N=C(\C)c2ccc(OC)cc2)sc2c1CCCCC2	inconclusive [inhibitor, single point]	–
CC(=O)C1=C(O)CC(C)(C)CC1=NCCc1nc2ccccc2[nH]1	–	inactive: -15.2%
CC(=O)NC(CCCN1C(=O)c2ccccc2C1=O)c1nnn(C)n1 (stereo not given)	–	inactive: 0.432%
COc1ccc(C/C(C)=N\NC(=O)c2cn(C)c3ccccc23)cc1OC	–	inactive: -15.1%
C=CCC(=O)NC1CC(C)(C)Cc2c1cnn2-c1ccccc1C (stereo not given)	inconclusive [inhibitor, partial curve, poor fit]	–
CCOCCCNC(=S)NCCCNc1nc2cc3c(cc2cc1C#N)OCO3	–	inactive: -2.71%
O=C1c2ccccc2C(=O)N1c1ccc(S(=O)(=O)N2CCN(c3ccccc3)CC2)cc1	–	inactive: 1.26%
O=C(Nc1ccncc1)C1CCN(S(=O)(=O)c2ccccc2)CC1	inconclusive [inhibitor, single point]	–
CCn1c(=O)c(CCC(=O)N2CCN(c3ccccn3)CC2)c(C)c2c(C)nn(-c3cccc(C)c3)c21	active: 14.6 µM	–
Cc1ccc(C)c(Nc2nc(NCc3ccco3)nc3nccnc23)c1	inconclusive [inhibitor, single point]	–
CCN(CC)CCCNc1nc(-c2ccccc2)nc2ccccc12	inconclusive [inhibitor, single point]	–
O=C(c1ccc(Br)o1)N1CCN(c2ccc3nnc(-c4ccc(F)cc4)n3n2)CC1	inconclusive [inhibitor, single point]	–
NCCc1c(-c2ccccc2)n(-c2ccccc2)c2ccccc12	inconclusive [inhibitor, single point]	–
COC(=O)C1=C(C)N(c2ccc(Cl)cc2)/C(=C/c2ccc(O)cc2)C1=O	inconclusive [inhibitor, single point]	–
Cc1nnc2c3ccccc3c(-c3ccc(O)cc3)nn12	inconclusive [inhibitor, single point]	–
CCC(Sc1ncnc2sc(C)c(C)c12)C(=O)OC (stereo not given)	–	inactive: -11.4%
Cc1ccc(C23CC4CC(CC(CN)(C4)C2)C3)cc1	active: 6.51 µM	–
CCOC(=O)C1=C(N)Oc2c(oc(CO)cc2=O)C1c1ccccc1 (stereo not given)	–	inactive: -21.8%
O=C(Nc1ccc(F)c(Cl)c1)Nc1c[nH]c(=O)[nH]c1=O	–	inactive: 0.83%
Cc1cc(C)c(N=Cc2c(O)n(-c3nccs3)c(=O)c3ccccc23)c(C)c1	inconclusive [inhibitor, single point]	–
